Our source for the cytotoxicity call and growth inhibition call values is the antibiotic and cytotoxicity screens of Wong et al. (2023).

SMILES strings stand for the structures. The list shows a part of the results.

For one experiment, the system named is HSkMC. The experiment can be described thus: cytotoxicity call (relative viability < 0.9). The note with it: 10 µM.
The subject of the next experiment is HepG2. In words: cytotoxicity call (relative viability < 0.9). The note with it: 10 µM.
The next experiment has as its system S. aureus RN4220. The experiment can be described thus: growth inhibition call (relative growth <= 0.2). Conditions: 50 µM.

On to `COc1ccccc1CNC(=O)C[C@H]1CC[C@H]2[C@@H](COc3ccc(NC(=O)c4ccno4)cc3C(=O)N2C)O1`, for which the cytotoxicity call with HSkMC and in the experiment with HepG2 was “inactive” throughout. Further, the growth inhibition call in the experiment with S. aureus RN4220 is “inactive”.
Regarding `C[C@H](CO)N1C[C@H](C)[C@H](CN(C)S(=O)(=O)c2cn(C)cn2)Oc2c(NS(=O)(=O)c3cccs3)cccc2C1=O`, the cytotoxicity call with HSkMC and in the experiment with HepG2 was “inactive” in each case. For the same compound, in the experiment on S. aureus RN4220, the growth inhibition call is “inactive”.
Turning to `C[C@H]1CN([C@@H](C)CO)C(=O)c2ccccc2-c2ccccc2CO[C@@H]1CN(C)Cc1ccccc1C(F)(F)F`, in the experiment with HSkMC, the cytotoxicity call is “active”. Moreover, the cytotoxicity call in the experiment with HepG2 is “inactive”. Further, the growth inhibition call with S. aureus RN4220 is “inactive”.
For the compound `COCC#Cc1cnc2c(c1)C(=O)N([C@H](C)CO)C[C@@H](C)[C@@H](CN(C)C(=O)Nc1cc(F)ccc1F)O2`, the cytotoxicity call in the experiment on HSkMC and with HepG2 was “inactive” in each case. The growth inhibition call in the experiment on S. aureus RN4220 is “inactive”.
For `C[C@H]1CN([C@@H](C)CO)C(=O)c2cccc(NS(=O)(=O)c3ccc(Cl)cc3)c2O[C@@H]1CN(C)C(=O)Nc1ccc(C(F)(F)F)cc1`, the cytotoxicity call with HSkMC and with HepG2 was “inactive” throughout. Besides, the growth inhibition call with S. aureus RN4220 was “inactive”.
On to `O=C(CCCCCCCC(=O)NCCO)NCCO`, for which the cytotoxicity call in the experiment on HSkMC and with HepG2 was “inactive” each time. Besides, the growth inhibition call in the experiment with S. aureus RN4220 is “inactive”.
Consider `CNC(=O)Nc1ccc(C(=O)NC)cc1`, for which the cytotoxicity call in the experiment with HSkMC and with HepG2 was “inactive” each time. Moreover, the growth inhibition call in the experiment on S. aureus RN4220 is “inactive”.
In the case of `C[C@H]1CN([C@@H](C)CO)S(=O)(=O)c2ccc(C#CCC3CCCC3)cc2O[C@H]1CN(C)C(=O)CN(C)C`, the cytotoxicity call with HSkMC was “inactive”. Moreover, the cytotoxicity call in the experiment with HepG2 was “active”. Further, the growth inhibition call in the experiment with S. aureus RN4220 is “inactive”.
`c1ccc(-c2nc3ccccc3o2)nc1`: the cytotoxicity call in the experiment with HSkMC and in the experiment on HepG2 was “inactive” in each case. The growth inhibition call in the experiment on S. aureus RN4220 is “inactive”.
On to `COc1ccc(NC(=O)N(C)C[C@@H]2OCCCC[C@H](C)Oc3ccc(NC(=O)Nc4c(C)noc4C)cc3C(=O)N([C@@H](C)CO)C[C@@H]2C)cc1`, for which the cytotoxicity call in the experiment with HSkMC and in the experiment on HepG2 was “inactive” throughout. In the experiment with S. aureus RN4220, the growth inhibition call is “inactive”.
In the case of `CSc1nc(Cl)cc(Cl)n1`, the cytotoxicity call with HSkMC and in the experiment with HepG2 was “inactive” each time. In addition, the growth inhibition call with S. aureus RN4220 was “inactive”.
On to `COc1ccc(S(=O)(=O)N(C)C[C@@H]2Oc3ccc(NS(=O)(=O)c4cn(C)cn4)cc3CC(=O)N([C@H](C)CO)C[C@H]2C)cc1`, for which the cytotoxicity call with HSkMC and in the experiment with HepG2 was “inactive” throughout. The growth inhibition call in the experiment with S. aureus RN4220 was “inactive”.
On to `Cc1ccc(S(=O)(=O)N2C[C@H](O)COC[C@H]3O[C@H](CC(=O)NCc4ccc(Cl)c(Cl)c4)CC[C@@H]32)cc1`, for which the cytotoxicity call in the experiment with HSkMC and in the experiment on HepG2 was “inactive” each time. The growth inhibition call in the experiment with S. aureus RN4220 is “inactive”.
`CCCC(=O)C1(c2ccccc2)CCN(C(=O)[C@@H](Cc2ccc(OC)cc2)NC(=O)[C@@H](N)Cc2cncn2C)CC1`: the cytotoxicity call with HSkMC and in the experiment on HepG2 was “inactive” in each case. The growth inhibition call with S. aureus RN4220 is “inactive”.
As to `COc1cc(Cc2cnc(N)nc2N)cc(OC)c1OC`, the cytotoxicity call in the experiment with HSkMC and in the experiment with HepG2 was “inactive” throughout. The growth inhibition call in the experiment on S. aureus RN4220 was “active”.
In the case of `COC(=O)C1=C(C)NC(C)=C(C(=O)OCCN(C)Cc2ccccc2)C1c1cccc([N+](=O)[O-])c1.Cl` (centres undefined), the cytotoxicity call with HSkMC and in the experiment on HepG2 was “inactive” throughout. Further, in the experiment with S. aureus RN4220, the growth inhibition call was “inactive”.
Regarding `COc1ccc(NC(=O)Nc2cccc3c2O[C@H](CN(C)Cc2ccc(C(=O)Nc4ccccc4N)cc2)[C@@H](C)CN([C@@H](C)CO)C3=O)cc1`, the cytotoxicity call with HSkMC and with HepG2 was “inactive” each time. For the same compound, the growth inhibition call in the experiment on S. aureus RN4220 was “inactive”.
Take `Cl.Clc1ccccc1CN1CCc2sccc2C1`: the cytotoxicity call with HSkMC and in the experiment on HepG2 was “inactive” each time. Besides, the growth inhibition call in the experiment with S. aureus RN4220 is “inactive”.
`O=C(O)c1ccccc1C(=O)Nc1ccc(S(=O)(=O)Nc2nccs2)cc1`: the cytotoxicity call with HSkMC and in the experiment on HepG2 was “inactive” each time. In addition, in the experiment on S. aureus RN4220, the growth inhibition call was “inactive”.
Regarding `CCOC(=O)c1ncn2c1C(=O)OC2(C)C`, the cytotoxicity call in the experiment on HSkMC and in the experiment on HepG2 was “inactive” in each case. For the same compound, the growth inhibition call with S. aureus RN4220 is “inactive”.
As for `C[C@@H]1CN([C@H](C)CO)C(=O)c2cc(NC(=O)Cc3ccccc3)ccc2O[C@@H](C)CCCCO[C@H]1CN(C)C(=O)Nc1ccccc1`, in the experiment with HSkMC, the cytotoxicity call is “inactive”. Moreover, in the experiment on HepG2, the cytotoxicity call is “active”. In addition, the growth inhibition call in the experiment on S. aureus RN4220 was “inactive”.
In the case of `C[C@H](CO)N1C[C@H](C)[C@@H](CN(C)C(=O)Nc2ccccc2)OCCCC[C@H](C)Oc2ccc(NC(=O)c3ccccc3)cc2C1=O`, the cytotoxicity call in the experiment with HSkMC and in the experiment with HepG2 was “inactive” each time. Besides, the growth inhibition call with S. aureus RN4220 was “inactive”.
Consider `C[C@H](CO)N1C[C@H](C)[C@H](CN(C)Cc2ccc3c(c2)OCO3)Oc2ccc(NC(=O)C3CC3)cc2C1=O`, for which the cytotoxicity call in the experiment with HSkMC and in the experiment on HepG2 was “inactive” in each case. The growth inhibition call in the experiment on S. aureus RN4220 was “inactive”.
Consider `COc1ccc([C@H]2CC=CC[C@@H](C)Oc3ccccc3C(=O)N(C)[C@H](Cc3ccccc3)C(=O)N2)c(OC)c1`, for which the cytotoxicity call in the experiment with HSkMC and with HepG2 was “inactive” each time. Also, the growth inhibition call in the experiment on S. aureus RN4220 is “inactive”.
For the compound `COc1ccc(NC(=O)N(C)C[C@H]2OCCCC[C@@H](C)Oc3ccc(NC(=O)c4ccncc4)cc3C(=O)N([C@H](C)CO)C[C@@H]2C)cc1`, the cytotoxicity call in the experiment with HSkMC and in the experiment with HepG2 was “inactive” in each case. Also, in the experiment with S. aureus RN4220, the growth inhibition call is “inactive”.
Consider `C[C@@H]1CN([C@@H](C)CO)C(=O)c2cc(NC(=O)Nc3ccc(C(F)(F)F)cc3)ccc2O[C@@H](C)CCCCO[C@H]1CN(C)S(=O)(=O)c1ccc(Cl)cc1`, for which the cytotoxicity call in the experiment on HSkMC and in the experiment on HepG2 was “inactive” in each case. Besides, the growth inhibition call in the experiment on S. aureus RN4220 was “inactive”.
On to `CCCCCS(=O)(=O)CCCCCCCCCCn1c(-c2ccc(O)cc2)c(C)c2cc(O)ccc21`, for which the cytotoxicity call in the experiment on HSkMC (human skeletal muscle cells) and in the experiment on HepG2 was “active” throughout. Further, the growth inhibition call in the experiment on S. aureus RN4220 is “inactive”.
For the compound `CC(=O)N[C@@H]1CC(=O)N(c2ccccc2)C1`, the cytotoxicity call with HSkMC and in the experiment with HepG2 was “inactive” in each case. Further, the growth inhibition call in the experiment on S. aureus RN4220 was “inactive”.
